Test results reported in PMC2265467 (PLoS Genetics, 2008).
Read-outs that look alike come from different tables or passages of the source.

What was measured:
[1] = system: CHO cells infected by P. aeruginosa PAK; conditions: for decrease in the number of dead/dying CHO cells: flow cytometry, 2 h, infected without compound = 100% lysis; for mean fluorescent intensity of 7-AAD: 2 h infection, background 7.42, infection control 18.2
Protocol: To determine if the small molecule inhibitor, exosin, could modulate the viability of CHO cells during P. aeruginosa infection, apoptotic CHO cells and living CHO cells were distinguished using the exclusion dye 7-AAD. Here, CHO cells were exposed to P. aeruginosa with or without the small molecule inhibitor for 2 hours, and the fraction of apoptotic cells was measured by 7-AAD staining and flow cytometry.

[2] = system: CHO cells infected by P. aeruginosa PAK
Excerpt: […] | […] | […] | […] | […]

SMILES | protective effect in CHO cell infection, flow cytometry (in words) [1] | decrease in the number of dead/dying CHO cells ([1]; 20 µM) | decrease in the number of dead/dying CHO cells ([1]; 40 µM) | decrease in the number of dead/dying CHO cells ([1]; 80 µM) | protective effect in CHO cell infection, lysis / LDH assay (in words) [2] | reduction in cell lysis (LDH release) ([2]; 20 µM) | reduction in cell lysis (LDH release) ([2]; 40 µM) | reduction in cell lysis (LDH release) ([2]; 80 µM) | effect on Pseudomonas growth (optical density) (P. aeruginosa PAK) | mean fluorescent intensity of 7-AAD ([1]; 20 µM) | mean fluorescent intensity of 7-AAD ([1]; 40 µM) | mean fluorescent intensity of 7-AAD ([1]; 80 µM) | Dead CHO cells ([1]; 80 µM, P.a. PAK, MOI 10, 2 h) | Living CHO cells ([1]; 80 µM, P.a. PAK, MOI 10, 2 h)
CCC1CN(C(=O)Nc2ccc(C)cc2)c2cc(Cl)ccc2O1 (stereo not drawn) [exosin-5138] | strong protective effect | 25.20% | 44.05% | 60.83% | showed a protective effect | 9.34% | 18.61% | 24.64% |  |  |  |  |  | 
CCC1CN(C(=O)Nc2ccc(C)cc2)c2ccccc2O1 (stereo not drawn) [exosin-5316] | exerted a protective effect |  |  |  | showed a protective effect | 7.94% | 12.84% | 15.81% |  |  |  |  |  | 
CCc1ccc(NC(=O)N2CC(CC)Oc3ccccc32)cc1 (stereo not drawn) [exosin] |  |  |  |  | protected CHO cells from lysis | 6.93% | 13.92% | 12.90% | did not affect Pseudomonas growth | 13.4 | 11.3 | 10.3 | 20.31% | 79.35%
CCC1CN(C(=O)Nc2cccc3c2CCCC3)c2ccccc2O1 (stereo not drawn) [exosin-5340] | no protective effect |  |  |  |  |  |  |  |  |  |  |  |  | 
